Biological target: SIRPα on human-derived THP-1 macrophages (human, UniProt P78324 31-504)
Test: cell-based or functional assay

UniProt P78324, sequence (P78324 31-504): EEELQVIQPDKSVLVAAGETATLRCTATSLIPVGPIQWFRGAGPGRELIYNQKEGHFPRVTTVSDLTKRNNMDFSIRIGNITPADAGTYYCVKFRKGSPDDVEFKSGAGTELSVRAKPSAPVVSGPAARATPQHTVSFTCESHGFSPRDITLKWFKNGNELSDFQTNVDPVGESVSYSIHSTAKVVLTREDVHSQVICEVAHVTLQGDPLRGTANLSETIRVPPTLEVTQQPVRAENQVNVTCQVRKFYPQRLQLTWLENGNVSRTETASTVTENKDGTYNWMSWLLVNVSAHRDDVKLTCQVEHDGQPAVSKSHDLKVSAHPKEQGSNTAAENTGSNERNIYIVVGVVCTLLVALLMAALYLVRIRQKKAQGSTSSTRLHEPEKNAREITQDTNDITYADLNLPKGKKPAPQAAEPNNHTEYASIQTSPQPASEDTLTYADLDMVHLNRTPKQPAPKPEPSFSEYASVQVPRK

B1: human CD47 on human red blood cells (ligand)
chain: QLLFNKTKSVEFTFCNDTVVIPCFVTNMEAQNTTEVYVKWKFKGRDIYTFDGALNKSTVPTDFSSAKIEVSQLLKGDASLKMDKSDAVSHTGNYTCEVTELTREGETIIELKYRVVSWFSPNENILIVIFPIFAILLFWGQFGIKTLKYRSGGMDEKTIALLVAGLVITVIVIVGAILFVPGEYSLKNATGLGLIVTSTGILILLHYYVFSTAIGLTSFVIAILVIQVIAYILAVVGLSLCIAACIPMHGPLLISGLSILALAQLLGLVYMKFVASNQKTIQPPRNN
In the case of B1, the “localization of nonmuscle myosin IIA to the phagocytic synapse” value is reported as 3.8 fold decrease and the “phosphotyrosine at the phagocytic synapse (immunostaining)” value is reported as 3.2 fold lower.
